Data as given in PubChem BioAssay AID1963576 (National Center for Advancing Translational Sciences (NCATS), 2024).
The whole screen tested about 46,000 compounds, of which about 60 (0.1%) were called active. Not shown: some 3% with an inconclusive outcome. The call rests on the fitted dose curve; in most records, active means well fitted inhibition curve with a large enough effect; inconclusive means small, poorly fitted or top-dose-only effect; inactive means no such curve, though single readings can be large or run the other way. The list shows a part of the results.

Test: Primary qHTS assay for Inhibitors of ovarian cancer metastasis using an organotypic tumor microenvironment (TME) model. Further: nearly all actives have a fitted effect of over 65% in size.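 On activity change, negative = inhibition: plate controls were DMSO wells for no effect and tomatine positive control wells for full effect.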
Conditions: SKOV3ip1-GFP adhesion/invasion on 3D omental model, fluorescence; series mostly up to 45.8 µM; activity change, negative = inhibition: at the top concentration
Method in brief: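 Primary human omental fibroblast/mesothelial 3D culture pre-formed 48 h. SKOV3ip1-GFP cells added with compounds (0.36-46 umol/L), incubated 2 h RT/16 h 37 C, fixed; GFP cells quantified at 488/509 nm.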

outcome, inactive:
CCS(=O)(=O)c1ncc(Cl)c(C(=O)N2CCN(c3cccc(Cl)c3)CC2)n1
Cc1ccc(CNS(=O)(=O)c2cc(C(=O)Nc3cccc(C(F)(F)F)c3)ccc2F)cc1
CCOC(=O)c1ccc(N2C(=O)c3n[nH]c(-c4cccs4)c3C2c2ccc(C(C)C)cc2)cc1 (stereo unspecified)
Cc1ccc2c(c1)c1c(c(=O)n(-c3ccccc3C)c(=O)n1CC(=O)NCc1ccccc1)n2C
CCc1cccc(CC)c1NS(=O)(=O)c1ccc2c(c1)CCN2C(=O)C1CC1
Cc1ccc(C)c(S(=O)(=O)c2nnn3c2nc(N2CCOCC2)c2sccc23)c1
CC(C)N(Cc1ccccc1)c1ncnc2c1nnn2C
O=C(NCc1cccnc1)c1nn(-c2ccccc2F)nc1CO
Cc1ccc(NC(=O)c2cccc(N3CCCS3(=O)=O)c2)cc1
CCCc1cc(C(=O)Nc2c(C)nn(Cc3ccc(C)cc3)c2C)no1
O=C(CCn1c(=O)c2cccn2c2ccc(F)cc21)NCCc1ccccc1
CCc1cc2c(cc3c(=O)n(CC(=O)NCCc4ccc(OC)c(OC)c4)ncn32)s1
COC(=O)c1cc(S(=O)(=O)NCC2CCN(Cc3cccc(F)c3)CC2)c[nH]1
Cc1ccc(C)c(NC(=O)c2ccc3c(c2)CCN3S(C)(=O)=O)c1

Activity change, negative = inhibition, inactive:
COc1ccc(CC(=O)NCc2ccc3c(c2)CCN3C(=O)c2ccc(Cl)cc2)cc1OC 2.1%
O=c1cc(-c2ccccc2)c2cc(Cl)c3c(c2o1)CN(Cc1ccccc1)CO3 -0.976%
Cc1cc(C)c2c(=O)cc(CSc3nnc(COc4ccccc4C)n3C)[nH]c2c1 0.175%
COc1ccccc1-c1cc(C(F)(F)F)nc(S(=O)(=O)CCCC(=O)Nc2cc(OC)c(OC)c(OC)c2)n1 -0.252%
COc1ccc(N(Cc2cccs2)C(=O)Nc2ccccc2)cc1 8.54%
COc1ccc(OC)c(NC(=O)CN2C(=O)c3ccccc3Sc3ccc(C(=O)N4CCCC4)cc32)c1 0.418%
CCOC(=O)c1c(Oc2ccc(OC)cc2)nnc(-c2ccccc2)c1-c1ccccc1 15.1%
COc1ccccc1NC(=O)Cn1c(=O)n(Cc2ccco2)c(=O)c2cccnc21 -7.3%
Cc1cc(-c2ccc(C)c(S(=O)(=O)N(C)c3ccc(C)c(C)c3)c2)on1 6.92%
Cc1ccc(CNC(=O)c2nnc(Cc3cccc(F)c3)o2)cc1 7.55%
CCOC(=O)c1cc(-c2ccc(OC)c(S(=O)(=O)Nc3ccc(OC)cc3OC)c2)on1 -14.4%
COc1ccccc1-c1nnc(SCCOc2ccccc2C)o1 -3.82%
CC(C)c1ccc(S(=O)(=O)c2cnc(SCC(=O)Nc3cccc(C(F)(F)F)c3)nc2N)cc1 1.77%
COc1ccc(N2CC(C(=O)Nc3ccc(NC(C)=O)cc3)CC2=O)cc1 (stereo unspecified) -0.342%
COC(=O)c1sccc1S(=O)(=O)N1CCN(c2ccccc2OC)CC1 7.21%
O=C(Nc1ccc2nc(SCCOc3ccccc3Cl)sc2c1)c1cccs1 3.54%
COc1ccc(NC(=O)C2=C(C)Nc3nc(CCCO)nn3C2c2ccc(O)cc2)cc1 (stereo unspecified) 0.682%
CCN1C(=O)c2ccccc2S(=O)c2ccc(C(=O)NCc3ccc(F)cc3)cc21 (stereo unspecified) 4.34%
COCCCNC(=O)C(=O)NCC(c1ccc2c(c1)OCO2)N1CCOCC1 (stereo unspecified) -11.2%
CCOc1ccc(C(c2c(O)cc(C)n(CCOC)c2=O)N2CCN(c3ccccc3F)CC2)cc1 (stereo unspecified) 12%
Cc1cc(C)c2oc(C(=O)Nc3sc4c(c3C(=O)NCc3ccco3)CCCC4)cc(=O)c2c1 3.04%
Cc1ccc(N(C(=O)COc2ccccc2C)S(=O)(=O)c2ccc(Cl)cc2)cc1 4.44%
Cc1ccc(CNC(=O)CCSCc2ccccc2F)cc1 -3.87%
CCOCCCNC(=O)c1ccc(NC(=O)N2CCCCc3ccccc32)cc1 -7.71%
Cc1c(NC(=O)c2ccc(Cl)cc2)cc(C(C)C)c(O)c1S(=O)(=O)c1ccc(Cl)cc1 -12.4%
COc1ccccc1N1CCN(c2ccc(=O)n(CC(=O)Nc3ccc(F)c(F)c3)n2)CC1 2.52%
CCOc1ccc(NC(=O)N2CCC(CN3CCc4ccccc4C3)CC2)cc1 8.75%
COc1ccccc1NC(=O)Cn1c(=O)n(-c2ccc(C)cc2)c(=O)c2ccc(C(=O)NCc3ccco3)cc21 -6.15%
Cc1ccc(Nc2c(-c3cc(Br)ccc3F)nc3cc(C)ccn23)cc1 -20.7%
CCN(CC)S(=O)(=O)c1cc(-c2nnc(Nc3ccc(OC)c(C(N)=O)c3)c3ccccc23)ccc1C -19.2%
O=C(NCc1ccc(Cl)cc1)C1CCCN(C(=O)c2cnn(-c3ccc(F)cc3)c2-n2cccc2)C1 (stereo unspecified) -7.41%
CCC(=O)N1CCc2cc(CNC(=O)C(CC)c3ccccc3)ccc21 (stereo unspecified) -0.46%
Cc1ccc(C)c(Nc2cc(C(=O)NC3CCCCC3)c3ccccc3n2)c1 3.6%
COc1cccc(OCCSc2nc3ccccc3n2CC(=O)N2CCCCC2)c1 8.92%
Cc1ccccc1Cn1c(=O)n(CCc2ccccc2)c(=O)c2c(C)c(C)sc21 1.59%
CCC[C@H](Nc1nc(-c2ccc(NC(=O)NCC)c(OC)c2)ncc1C)c1cccnc1 8.64%
COc1cccc(-n2cc(C(=O)NCc3ccccc3OC)c3ccccc3c2=O)c1 -9.49%
COc1ccc(-c2nc(CN3CCC(C(=O)NCCCOC(C)C)CC3)c(C)o2)cc1OC 3.88%
Cc1cccc(C)c1-n1ncc(C(=O)NCCN2CCOCC2)c1C1CCN(C(=O)OC(C)(C)C)CC1 -3.53%
COc1ccc(NC(=O)Cn2c(=O)n(Cc3nc(C)no3)c(=O)c3cc4c(cc32)OCO4)cc1OC -1.28%
COc1ccc(OC)c(C2N=C(N)Nc3nc4ccccc4n32)c1 (stereo unspecified) 12.7%
COc1cc(OC)c(C2Nc3ccccc3-c3nnc(SCc4ccccc4)nc3O2)cc1OC (stereo unspecified) 9.09%
O=C(CCn1ccc2cc(S(=O)(=O)N3CCCC3)ccc21)NCc1cccc(F)c1 -1.88%
COC(=O)CSc1nc(-c2ccc(F)cc2)cc(C(F)(F)F)n1 24.3%
Cc1ccc(C)c(NC(=O)CCn2nc(C)c3c(C)n(-c4ccccc4)nc3c2=O)c1 1.89%
Cc1nc(-c2ccc(Cl)cc2)sc1CCNC(=O)c1ccc(C(F)(F)F)cc1 -22.8%
COc1ccccc1C(=O)OCc1cc(=O)n2nc(C3CC3)sc2n1 -3.89%
